# According to PubChem BioAssay AID1461 (National Center for Advancing Translational Sciences (NCATS), 2008):
# The campaign covered roughly 220,000 compounds. About 2,300 (1%) were called active. The inconclusive results got no clear call from the source; some entries with a clear call stand among them for comparison. Calls come from the whole dose curve; as a rule, active = well fitted inhibition curve with a large enough effect; inconclusive = small, poorly fitted or top-dose-only effect, or effect the other way; inactive = no such curve, though single readings can be large or run the other way. Where the call is inconclusive, the potency comes from a doubtful curve fit. Where a structure was tested more than once in an assay, its records may differ in their call.
# Molecular target: Neuropeptide S receptor (Homo sapiens) (UniProt Q6W5P4)
# Sequence of UniProt Q6W5P4 (Q6W5P4 whole entry, looked up): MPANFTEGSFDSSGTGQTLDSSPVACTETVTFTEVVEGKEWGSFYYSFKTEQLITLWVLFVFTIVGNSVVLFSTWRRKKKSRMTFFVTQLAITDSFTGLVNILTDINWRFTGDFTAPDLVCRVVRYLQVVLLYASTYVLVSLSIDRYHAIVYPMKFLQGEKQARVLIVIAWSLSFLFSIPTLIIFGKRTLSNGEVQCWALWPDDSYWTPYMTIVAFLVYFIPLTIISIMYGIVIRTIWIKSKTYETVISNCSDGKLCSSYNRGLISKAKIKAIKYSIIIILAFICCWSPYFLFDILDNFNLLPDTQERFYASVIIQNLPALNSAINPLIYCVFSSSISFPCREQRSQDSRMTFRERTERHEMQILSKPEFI
# Test: qHTS Assay for Antagonists of the Neuropeptide S Receptor: cAMP Signal Transduction; note: nearly all actives have a fitted effect of over 50% in size
# Conditions: CHO-NPSR cells, cAMP TR-FRET, antagonist mode; activity change, negative = inhibition: at 38.3 µM (top of the series) unless noted
# % is set by controls: 0 for no effect and ±100 for the full control effect; potency is the fitted concentration of half-maximal effect; tags give direction and shape of the fitted curve.
Structure (SMILES),Potency,"activity change, negative = inhibition"
O=C(Nc1ccc2c(c1)OCCO2)c1cc2sccc2n1Cc1ccc(F)cc1,"inconclusive: 12.6 µM [inhibitor, partial curve]",
Cc1ccc(NCc2nnc(SCC(=O)Nc3ncc(C)s3)n2CC2CCCO2)c(C)c1 (configuration not stated),"inconclusive: 20 µM [inhibitor, single point]",
CN(C)c1ccnc2sc3c(SCc4ccc(Cl)cc4)ncnc3c12,"inconclusive: 20 µM [inhibitor, single point]",
Cc1c(NC(=O)C(Sc2ccccc2)c2ccccc2)cccc1[N+](=O)[O-] (configuration not stated),"inconclusive: 12.6 µM [inhibitor, single point]",
c1ccc(CN2CCN(c3ncccn3)CC2)nc1,"inconclusive: 5.01 µM [inhibitor, single point]",
O=C(N/N=C/c1ccco1)c1cc(-c2ccc3ccccc3c2)n[nH]1,"inconclusive: 12.6 µM [inhibitor, single point]",
CN(C)S(=O)(=O)c1cc(NC(=O)CN2CCOCC2)ccc1Cl,inactive,
CC[n+]1c(C=C2C=C(C)OC(C)=C2)sc2ccccc21,inactive,
CCN(CC)S(=O)(=O)c1ccc(Oc2cccc(C(C)=O)c2)nc1,"inconclusive: 5.01 µM [inhibitor, single point]",
CC(C)(C)C1C/C(=C/c2ccco2)C(=O)/C(=C/c2ccco2)C1 (configuration not stated),"inconclusive: 25.1 µM [inhibitor, single point]",
COc1ccc(C2Nc3ccccc3C(=O)N2Cc2ccco2)cc1COc1ccc([N+](=O)[O-])cc1 (configuration not stated),"inconclusive: 12.6 µM [inhibitor, partial curve]",
Cc1ccc(CSc2nnc(C)c(=O)[nH]2)cc1,inactive,
CN(C)C(=S)Nc1nc2ccccc2s1,"inconclusive: 5.01 µM [activator, full curve]",
O=C(Cn1nc(Cc2cccnc2)c2ccccc2c1=O)NCC1COc2ccccc2O1 (configuration not stated),"inconclusive: 3.98 µM [inhibitor, single point]",
CCC(C)(C)NC(=O)C(c1ccc(C)o1)N(Cc1cccs1)C(=O)Cn1nnc2ccccc21 (configuration not stated),"inconclusive: 10 µM [inhibitor, partial curve]",
Cc1cc(NC(=O)COC(=O)c2c(C)nn(-c3ccccc3)c2C)no1,,inactive: 9.51% [at 7.67 µM]
O=C(NCC1CCCCN1)c1cc(OCC(F)(F)F)ccc1OCC(F)(F)F (configuration not stated),"inconclusive: 0.631 µM [inhibitor, full curve, poor fit]",
O=C(NC1c2ccccc2-c2ccccc21)c1ccco1,"inconclusive: 25.1 µM [inhibitor, single point]",
Cc1ccc(-c2nnc(CSc3nc4cc5c(cc4cc3C)OCO5)o2)cc1,"inconclusive: 25.1 µM [inhibitor, single point]",
O=C(Nc1ccc(F)c(Cl)c1)Nc1csc2ccccc12,"inconclusive: 12.6 µM [inhibitor, single point]",
CCOC(=O)c1cc(CC)sc1NC(=O)Cc1ccccc1,"inconclusive: 10 µM [inhibitor, single point]",
N#CC1=C(N)Oc2c(ccc3ccccc23)C1c1cccs1 (configuration not stated),"inconclusive: 7.94 µM [activator, partial curve]",
CCc1cccc(CC)c1NC(=O)CSc1nc2ccc(N3C(=O)C4C(C3=O)[C@H]3C=C[C@@H]4C3)cc2s1 (some centres not stated),inactive,
CCOC(=O)Cc1c(C)nc2c(-c3ccccc3)c(C)nn2c1C,"inconclusive: 0.794 µM [inhibitor, partial curve, poor fit]",

Structure (SMILES),Potency,"activity change, negative = inhibition"
CCCN(/C=N/c1sc2c(c1C#N)CCCCC2)CCC,"inconclusive: 10 µM [inhibitor, partial curve]",
Cn1c(N2CCCC2)nc2c1c(=O)n(Cc1ccc(F)cc1)c(=O)n2C,"inconclusive: 10 µM [inhibitor, single point]",
CN(Cc1ccccc1)C(=O)COc1ccc(N(C)S(=O)(=O)c2ccc(F)cc2)cc1,"inconclusive: 25.1 µM [inhibitor, single point]",
CC(C)(C)c1ccc(Cn2cnc(-c3ccc([N+](=O)[O-])cc3)c2)cc1,"inconclusive: 15.8 µM [inhibitor, single point]",
CC(=O)c1ccc(NS(=O)(=O)c2ccc(CC(C)C)cc2)cc1,inactive,
CSc1nc(-c2cccs2)c(C#N)c(=O)[nH]1,"inconclusive: 2.51 µM [activator, full curve]",
O=C(NCc1ccccc1)Nc1cccn(Cc2ccccc2F)c1=O,inactive,
Cc1ccc(C(=O)O/N=C(\c2ccccc2)c2ccncc2)cc1,inactive,
CCOC(=O)C1CCN(C(=O)c2sc3nc(C)nc(N4CCC(C)CC4)c3c2C)CC1,"inconclusive: 12.6 µM [inhibitor, partial curve]",
Cc1onc(-c2ccccc2Cl)c1C(=O)Oc1cc(N)n(S(=O)(=O)c2ccc(F)cc2)n1,"inconclusive: 10 µM [inhibitor, single point]",
COc1ccc(NC(C)=O)cc1NC(C)C(=O)Nc1cccc2ccccc12 (configuration not stated),"inconclusive: 0.316 µM [inhibitor, partial curve]",
Cn1c(=S)[nH]c2ccccc21,"inconclusive: 10 µM [activator, single point]",
N#C/C(=C\C1=C(N2CCOCC2)C(=C/c2cccc([N+](=O)[O-])c2)/CC1)C(=O)Nc1ccccc1F,inactive,
CC(C)c1nc(SCC(=O)N2CCCc3ccccc32)c2c(=O)n(C)c(=O)n(C)c2n1,"inconclusive: 12.6 µM [inhibitor, partial curve]",
CCc1ccc(NC(=S)N(Cc2ccc(Cl)cc2)Cc2ccc(C(=O)O)cc2)cc1,inactive,
O=C(N/N=C/c1cccc([N+](=O)[O-])c1)C1CC1c1ccccc1 (configuration not stated),"inconclusive: 12.6 µM [inhibitor, single point]",
Cc1ccc(-c2nnc(Sc3nc4ccccc4o3)c3ccccc23)cc1,"inconclusive: 12.6 µM [inhibitor, single point]",
CN1N=C2c3ccccc3CCC2C1c1ccc(Cl)cc1 (configuration not stated),inactive,
CCCSc1nc(N)c(C#N)c(-c2ccc(C)cc2)c1C#N,"inconclusive: 10 µM [inhibitor, single point]",
CNC(=O)COc1ccc(S(=O)(=O)Nc2ccc(C)cc2)cc1,inactive,
COc1ccc(-c2noc(CSc3nnc(Cc4ccccc4)n3-c3ccc(Cl)cc3)n2)cc1,"inconclusive: 10 µM [inhibitor, partial curve]",
O=C(Nc1nccs1)c1cc(Cl)nc2ccccc12,inactive,
O=C1CSC(=Nc2cc(Cl)ccc2Cl)N1,inactive,
O=C(O)c1cc(-c2ccco2)nc2ccc(Br)cc12,active: 6.31 µM,

Structure (SMILES),Potency,"activity change, negative = inhibition"
COc1ccc(S(=O)(=O)N2CCN(C(=O)c3cccs3)CC2)cc1,inactive,
Cc1ccc(-n2c(SCC(=O)NCc3cccs3)nnc2-c2ccoc2C)cc1,"inconclusive: 12.6 µM [inhibitor, partial curve, poor fit]",
Cc1ccc2[nH]c3c(=O)n(Cc4ccncc4)cnc3c2c1,"inconclusive: 25.1 µM [inhibitor, single point]",
O=C(NCc1cccnc1)/C(=C\c1ccc(-c2ccc(Cl)c(Cl)c2)o1)S(=O)(=O)c1ccccc1,active: 12.6 µM,
CC(C)Cn1c(SCC(=O)N2CCN(C(=O)c3ccco3)CC2)nc2ccccc2c1=O,inactive,
CCOc1cc(-c2noc(-c3cccnc3)n2)ccc1OC,inactive,
O=C1CCN(S(=O)(=O)c2ccccc2)C2CCCCC12 (configuration not stated),inactive,
CCn1c(O)c(/C=C/C=C/C=Nc2ccccc2)sc1=S,inactive,
Clc1ccc(N=c2ssnc2Cl)nc1,inactive,
CCN1C(=O)c2cccc3c(S(=O)(=O)Nc4ccncc4)ccc1c23,,inconclusive: -37.5% [inhibitor] [at 46.1 µM]
Cc1cc(Sc2nnc(/N=C/N(C)C)s2)c2ccccc2n1,"inconclusive: 25.1 µM [activator, single point]",
CC(C)C(=O)Nc1ccc(NC(=O)c2ccco2)cn1,inactive,
CC(C)(C)c1ccc(/C([O-])=C(/C(=S)NCc2ccco2)[n+]2ccccc2)cc1,"inconclusive: 12.6 µM [activator, single point]",
Cc1occc1C(=O)N/N=C/c1ccc(OCc2ccccc2)cc1,"inconclusive: 25.1 µM [inhibitor, single point]",
O=C(O)c1ccccc1Nc1ccc([N+](=O)[O-])cc1,inactive,
O=C(CCCCCCN1C(=O)c2ccccc2C1=O)Nc1nccs1,"inconclusive: 3.16 µM [inhibitor, single point]",
CCOC(=O)c1c(C)c(C(=O)Nc2ccc(N(C)C)cc2)c(C)n1CC,"inconclusive: 3.16 µM [inhibitor, single point]",
Cc1ccc(C)c(NC(=S)N/N=C/C(C)c2ccccc2)c1 (configuration not stated),"inconclusive: 20 µM [inhibitor, single point]",
Cc1ccc2nc(/C(C#N)=C\c3ccc([N+](=O)[O-])o3)[nH]c2c1,active: 10 µM,
CCCn1cc(CN2CCC(Cc3ccccc3)(C(=O)OCC)CC2)c(C)n1,"inconclusive: 3.16 µM [activator, single point]",
Cc1ccc2nc(Cl)c(CN(C(=O)c3cnccn3)C3CCCCC3)cc2c1,"inconclusive: 10 µM [inhibitor, single point]",
CC1(C)CC(=O)C2=C(C1)N=C1SCCC(=O)N1C2c1ccc(C(F)(F)F)cc1 (configuration not stated),"inconclusive: 12.6 µM [inhibitor, single point]",
Cc1cc(C)n(-c2nnc(Cl)c3ccccc23)n1,inactive,
C=CCn1c(SCc2c(C)noc2C)nc2sc(C)c(C)c2c1=O,"inconclusive: 12.6 µM [inhibitor, single point]",
